# According to publication PMC6919601, “Identification of Plasmodium dipeptidyl aminopeptidase allosteric inhibitors by high throughput screening” (PLoS ONE, 2019):
# The campaign covered roughly 110,000 compounds. About 230 (0.21%) showed an effect of 50% or more. Some of the results follow.
# Target: DPAP1 (Plasmodium falciparum, UniProt Q8IIJ9)
# Assay: primary screen, percent inhibition; read by cleavage of a fluorogenic dipeptide substrate; higher = more effect of the substance
# Set-up: species or system P. falciparum D10 trophozoite lysates; single well
# 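Note: 30 min substrate incubation versus DMSO and 10 µM JCP410 controls.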
# DPAP1, sequence (Q8IIJ9 whole entry, looked up): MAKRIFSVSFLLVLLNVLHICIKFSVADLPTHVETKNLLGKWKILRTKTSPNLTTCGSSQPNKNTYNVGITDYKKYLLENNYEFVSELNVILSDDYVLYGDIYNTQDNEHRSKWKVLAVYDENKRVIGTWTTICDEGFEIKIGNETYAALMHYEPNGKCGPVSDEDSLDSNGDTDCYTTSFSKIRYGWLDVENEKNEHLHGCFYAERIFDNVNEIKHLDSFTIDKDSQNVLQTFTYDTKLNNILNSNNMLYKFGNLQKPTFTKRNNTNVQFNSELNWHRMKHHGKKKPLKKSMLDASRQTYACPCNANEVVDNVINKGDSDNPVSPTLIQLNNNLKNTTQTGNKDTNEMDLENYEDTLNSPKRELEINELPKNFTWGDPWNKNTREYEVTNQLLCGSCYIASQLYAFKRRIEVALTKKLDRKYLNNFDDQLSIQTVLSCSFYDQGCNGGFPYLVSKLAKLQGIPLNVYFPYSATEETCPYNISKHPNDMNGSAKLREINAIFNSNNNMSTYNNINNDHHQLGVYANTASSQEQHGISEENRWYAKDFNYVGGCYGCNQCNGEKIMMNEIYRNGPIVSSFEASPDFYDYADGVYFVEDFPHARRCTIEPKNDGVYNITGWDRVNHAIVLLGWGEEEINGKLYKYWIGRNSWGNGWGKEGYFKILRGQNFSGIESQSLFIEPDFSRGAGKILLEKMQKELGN
row,SMILES,% Inhibition @ 10 uM [%]
1,CCOc1ccccc1CNCc1c(C(=O)O)c(C)n(Cc2ccccc2C)c1C,-0.23
2,COc1cc(CNC(C)(C)C)ccc1OCC(=O)NC(C)(C)C,0.605
3,O=C(NC1CCCCC1)N1CC=CCC1,1.29
4,CNC(=O)C1c2ccccc2-c2ccccc2CS1(=O)=O (centres unmarked),-14.4
5,Cc1ccc(/N=C2/C=C(O)CC(C)(C)C2)c(N)c1,0.673
6,Cc1ccc(CNC(=O)c2ccc(Cl)cc2)c(S)n1,2.48
7,c1c2c(cc3c1OCCO3)C1CN(C2)Cc2cc3c(cc21)OCCO3,-4.52
8,N#Cc1c(NC(=O)c2cccs2)sc2c1CCCCC2,2.36
9,CC(C)N1C(=O)S/C(=C/c2ccccc2Cl)C1=O,3.5
10,CC(=O)N1c2ccccc2CCc2ccc(N)cc21,6.7
11,CC(C)(C)C1CCc2c(sc(NC(=O)c3ccco3)c2C(=O)N2CCCC2)C1 (centres unmarked),2.45
12,Cc1ccc[n+](CC(=O)Nc2nc3ccccc3s2)c1,5.31
13,COc1cc(CNCCc2c[nH]c3ccccc23)cc(OC)c1O,-1.6
14,Cc1ccc(N(CC(=O)N2CCN(C(c3ccccc3)c3ccccc3)CC2)S(C)(=O)=O)cc1,2.33
15,O=C(Cc1ccccc1)Nc1cc(C(=O)O)c(NC(=O)Cc2ccccc2)cc1C(=O)O,20
16,O=C(Nc1cccc(NC(=O)c2ccccc2Cl)c1)c1ccc(F)cc1,-3.75
17,COc1cc(-c2nc3n(n2)C(c2ccccc2)C2=C(O)CC(C)(C)CC2=N3)cc(OC)c1OC (centres unmarked),1.96
18,CCO/C(O)=C1\C(C)=NC2=C(C(=O)CCC2)C1c1ccc2c(c1)OCO2 (centres unmarked),-1.75
19,CCC1CCc2c(sc(NC(=O)c3c(-c4ccccc4)noc3C)c2C(N)=O)C1 (centres unmarked),4.84
20,NCC(c1ccccc1)(c1ccccc1)c1ccccc1,0.343
21,Cc1ccc2cc3cc(C(=O)NCCC4=CCCCC4)oc3nc2c1,-9.18
22,CCCC1=C(C(=O)OCC)C(c2ccccc2F)C(C#N)=C(N)O1 (centres unmarked),6.18

row,SMILES,% Inhibition @ 10 uM [%]
1,Cc1c(CCC(=O)O)c(=O)oc2cc3oc4c(c3cc12)CCCC4,8.12
2,COc1ccc(CCNS(=O)(=O)c2c(C)nc(O)nc2O)cc1OC,5.85
3,COC(=O)c1ccc(/C=c2\sc3nc(-c4ccccc4OC)nn3c2=O)cc1,0.561
4,CC1CCN(C(=O)C2CCN(S(=O)(=O)N3CCC4(CC3)OCCO4)CC2)CC1,-1.21
5,N#CCNC(=O)C(CCSc1ccccn1)NC(=O)c1ccccc1 (centres unmarked),-0.214
6,Cc1ccc(S(=O)(=O)N(CC(=O)N2CCOCC2)c2cc(Cl)cc(Cl)c2)cc1,-3.49
7,CCN1CCCC1CNC(=O)c1ccc(-n2c(C)cc3c2CCCC3)cc1 (centres unmarked),-7.95
8,COc1ccc(C2=NN(CC(=O)NC(C)c3ccccc3)C(=O)CC2)cc1 (centres unmarked),-9.6
9,Nc1nc2ccc(C3CCCCC3)cc2s1,5.03
10,O=C(CN1C(=O)c2ccccc2S1(=O)=O)Nc1ccccc1Br,-2.27
11,CC(=O)c1c(C)nn(-c2ccccc2)c1C,-4.6
12,COC(=O)c1ccc(/C=C2\SC(=O)N(CC(=O)N3CCOCC3)C2=O)cc1,1.52
13,CN(c1ccccc1)S(=O)(=O)c1cccc(C(=O)O)c1,-3.23
14,NC(=O)NC(Cc1ccccc1)c1ccccc1 (centres unmarked),-3.32
15,CCOC(=O)c1sc(NC(=O)c2cc(-c3ccc(O)cc3)on2)c(C(=O)OCC)c1C,-1.96
16,CCN(CC)S(=O)(=O)c1ccc([N+](=O)[O-])cc1,-1.8
17,O=C(O)C1C2C=CC(C2)C1C(=O)N1CCN(Cc2ccccc2)CC1 (centres unmarked),2.49
18,CC1CC(O)CCN1C(C)c1ccccc1 (centres unmarked),-2.32
19,O=C(O)C(c1ccccc1)C(c1ccccc1)c1ccccc1 (centres unmarked),0.518
20,COc1ccc(CC(=N)NOC(=O)c2cccs2)cc1,-3.06
21,CNC(=O)c1ccc(-n2nc(C)cc2-c2ccccc2)cc1,3.66
22,CS(=O)(=O)N(CC(=O)Nc1ccccc1Cl)c1cc(Cl)cc(Cl)c1,-4.71

row,SMILES,% Inhibition @ 10 uM [%]
1,CN(Cc1ccc(F)cc1F)CC(O)c1ccccc1 (centres unmarked),-4.95
2,Cc1ccc(C2=NC(c3ccsc3)NC(c3ccccc3O)C2)cc1 (centres unmarked),-2.45
3,N#Cc1c(N)nc(SCC(=O)OCc2ccccc2)c(C#N)c1-c1ccccc1,4.63
4,CC(=O)N1CCC(NCCc2ccc(F)cc2)CC1,7.92
5,O=C(NCc1ccc2c(c1)OCO2)C1C2C=CC3(CN(Cc4cccs4)C(=O)C13)O2 (centres unmarked),1.07
6,CCCC1CCc2c(sc(NC(=O)C3CCCCC3C(=O)O)c2C(N)=O)C1 (centres unmarked),1.34
7,O=C(/C=C/c1ccc(Cl)cc1)NCc1ccco1,10.2
8,Cc1nc2ccc(S(=O)(=O)CCC(=O)NC3CCCc4ccccc43)cc2s1 (centres unmarked),1.95
9,COC(=O)C1=C(C(C)=O)C(c2ccccc2F)n2nnnc2N1 (centres unmarked),-2.98
10,Cc1nn(-c2ccccc2)c2nc(C3CC3)cc(C(=O)NCCc3ccccc3)c12,-4.7
11,O=C(O)CCC(=O)N1CCN(c2ccccc2)CC1,-2.75
12,Cc1cccc(S(=O)(=O)Nc2ccc3c(c2)OCCO3)c1,-11.5
13,COc1cc2c(cc1C(c1ccccc1)(c1ccccc1)C1C=CC=CC1)NC(C)(C)C=C2C (centres unmarked),5.03
14,O=C1CC(c2ccccc2)c2c(ccc3ccccc23)N1 (centres unmarked),-8.85
15,Cc1ccc(CN2CC(C)OC(C)C2)cc1 (centres unmarked),7.2
16,Cc1ccc(C)c(S(=O)(=O)Nc2ccc(C(=O)N3CCN(C)CC3)cc2)c1,-3.77
17,CC(C(=O)NCc1cccnc1)n1ccc2cc(S(=O)(=O)N3CCCC3)ccc21 (centres unmarked),-0.665
18,CCn1c(NC(=O)c2cccc(Cn3cc(Cl)cn3)c2)nc2ccccc21,0.64
19,O=C1OC(/C=C/c2ccccc2)=NC/1=C\c1cccc2ccccc12,5.32
20,Cc1ccc(C(=O)N/C(=C/c2ccccc2)C(=O)NCCCC(=O)O)cc1,-3.33
21,CC(=O)CC(C)(C)S(=O)(=O)c1ccc(Cl)c(Cl)c1,1.38
